Test results: the supplement of paper PMC11369174, “Proteome-scale characterisation of motif-based interactome rewiring by disease mutations” (Molecular Systems Biology, 2024)
Some of the results follow. Read counts after selection give these values, which scatter widely.

T1: SHC_PH__P29353_149_317
T1 chain: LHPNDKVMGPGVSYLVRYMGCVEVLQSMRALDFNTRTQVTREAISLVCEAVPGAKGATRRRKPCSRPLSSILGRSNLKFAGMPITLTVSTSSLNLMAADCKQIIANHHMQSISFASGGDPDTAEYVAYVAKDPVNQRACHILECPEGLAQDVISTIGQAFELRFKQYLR

T2: SIN3A_PAH__Q96ST3_295_383
T2 chain: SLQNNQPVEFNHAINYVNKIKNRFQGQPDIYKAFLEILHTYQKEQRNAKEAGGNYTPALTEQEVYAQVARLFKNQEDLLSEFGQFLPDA

T3: RDX_FERM_1_P35241_5_295
T3 chain: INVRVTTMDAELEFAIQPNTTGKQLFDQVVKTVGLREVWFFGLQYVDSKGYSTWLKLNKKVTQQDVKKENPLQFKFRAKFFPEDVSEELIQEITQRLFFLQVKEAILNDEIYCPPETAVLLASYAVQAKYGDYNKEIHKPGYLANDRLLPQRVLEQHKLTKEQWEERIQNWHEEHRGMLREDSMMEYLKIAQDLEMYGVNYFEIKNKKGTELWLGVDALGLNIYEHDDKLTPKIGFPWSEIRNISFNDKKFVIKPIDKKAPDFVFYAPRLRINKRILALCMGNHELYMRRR


Molecular target: T1, SHC_PH__P29353_149_317
Assay: mean normalised NGS count of phage-displayed peptide after selection on bait (% of reads); baits are purified protein domains named by gene / domain / UniProt id / residues; peptides come from disordered regions of human proteins; higher = stronger enrichment / binding
Settings: replicate selections in which the peptide was seen: 2

Binder | mean normalised NGS count
VALQLTEQDLETNKLD [BMPR2 654-669 mut Q13873.E661Q] | 0.0539
YRYHGHSMSDPGVSYR [PDHA1 287-302 wt] | 0.0955
AMSDQVRKATQQAEQL [MYH11 1754-1769 mut P35749.R1758Q] | 1.79
YRYHGHSMSDPGVSYR [PDHA2 287-302 wt] | 0.0955
LYEHLTLEKSSSNLAV [BRCA2 2362-2377 wt] | 0.355

Molecular target: REPS1___Q96D71_226_314
Assay: as above
Settings: replicate selections in which the peptide was seen: 4

Binder | mean normalised NGS count
GRGRGRGRRGGRGQNS [MRE11 569-584 wt] | 6.9
WVAHRKAQHLSATVAE [ZNF526 155-170 wt] | 6.38
LAELDPEPTNPFQPIA [ARL13B 246-261 wt] | 23.7
MVTRLLQQQNLPQTGE [INPPL1 243-258 wt] | 3.07

Same assay, conditions: replicate selections in which the peptide was seen: 2

Binder | mean normalised NGS count
LAMLHASDLASPSSAN [GTPBP3 333-348 mut Q969Y2.D337H] | 0.539
QSPGRNSISPGRNGIS [APC 2322-2337 wt] | 1.23
NPWAQDEWEIPRQSLR [BLK 227-242 wt] | 0.65
AAFPSKATFWWVSGLV [ABCC6 208-223 wt] | 8.07
ANFVHSQRREAFLYRS [PDE4D 180-195 mut Q08499.S190A] | 0.0679
WGVVTVTTIGYGDNVP [KCNQ1 305-320 mut P51787.K318N] | 0.148

Same assay, conditions: replicate selections in which the peptide was seen: 3

Binder | mean normalised NGS count
QRNFDKILAEWKQKYE [MYH6 1448-1463 wt] | 6.58
LAARGLAVLGEDNAPL [KISS1R 383-398 wt] | 6.12
QRNFDKILAEWKQKYE [MYH7 1448-1463 wt] | 6.58

Molecular target: T2, SIN3A_PAH__Q96ST3_295_383
Assay: as above
Settings: replicate selections in which the peptide was seen: 2

Binder | mean normalised NGS count
RGPGLLPLLAALAWFS [TTC19 52-67 wt] | 0.19
LMSIEVLLLVVRHLSL [PKHD1 8-23 mut P08F94.A17V] | 19.7

Molecular target: T1, SHC_PH__P29353_149_317
Assay: as above
Settings: replicate selections in which the peptide was seen: 3

Binder | mean normalised NGS count
TWIENKLYGMSDPNWP [RET 1055-1070 wt] | 0.0309

Molecular target: REPS1___Q96D71_226_314
Assay: as above
Settings: replicate selections in which the peptide was seen: 5

Binder | mean normalised NGS count
WLSHYWMPKWINATDP [ASNS 532-547 wt] | 25.7
NPWAQDEWEIPQQSLR [BLK 227-242 mut P51451.R238Q] | 1.85

Molecular target: T3, RDX_FERM_1_P35241_5_295
Assay: as above
Settings: replicate selections in which the peptide was seen: 4

Binder | mean normalised NGS count
YDLLPFLSSTISPYDR [CRYAA 34-49 mut P02489.Y48D] | 0.0504
YYLLTGDTRLELELRP [APOB 992-1007 mut P04114.P994L] | 0.173

Same assay, conditions: replicate selections in which the peptide was seen: 5

Binder | mean normalised NGS count
SYYPTSSSTSFMSSSS [EMD 180-195 wt] | 1.73

Molecular target: RUNX1T1-MYND___Q06455_510_559
Assay: as above
Settings: replicate selections in which the peptide was seen: 3

Binder | mean normalised NGS count
VAWVSNMPHLLADIES [SYNGAP1 1155-1170 mut Q96PV0.S1165L] | 0.704

Molecular target: T1, SHC_PH__P29353_149_317
Assay: as above
Settings: replicate selections in which the peptide was seen: 6

Binder | mean normalised NGS count
IFVQNLVPDWWGPDGT [SLC12A3 324-339 mut P55017.R334W] | 6.95

Molecular target: RUNX1T1-MYND___Q06455_510_559
Assay: as above
Settings: replicate selections in which the peptide was seen: 2

Binder | mean normalised NGS count
ELSPHLPVLIRDSFYS [SKI 392-407 mut P12755.A399V] | 0.411
